# Laboratory results taken from PubChem BioAssay AID1346428 (National Center for Advancing Translational Sciences (NCATS), 2018).
# In all, about 48,000 compounds went through this assay and about 1,200 (2.5%) were called active. About 2% were inconclusive and are not listed.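 Rule for the calls: active = activation of at least 60% and not above a set upper limit (about 1 call in 100 departs from these limits); inconclusive = activation of 40% to 60%, or above that upper limit; inactive = activation under 40%.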 The list shows a part of the results.
# Biological target: Probable G-protein coupled receptor 32 (Homo sapiens) (UniProt O75388)
# Sequence of UniProt O75388 (O75388 whole entry, looked up): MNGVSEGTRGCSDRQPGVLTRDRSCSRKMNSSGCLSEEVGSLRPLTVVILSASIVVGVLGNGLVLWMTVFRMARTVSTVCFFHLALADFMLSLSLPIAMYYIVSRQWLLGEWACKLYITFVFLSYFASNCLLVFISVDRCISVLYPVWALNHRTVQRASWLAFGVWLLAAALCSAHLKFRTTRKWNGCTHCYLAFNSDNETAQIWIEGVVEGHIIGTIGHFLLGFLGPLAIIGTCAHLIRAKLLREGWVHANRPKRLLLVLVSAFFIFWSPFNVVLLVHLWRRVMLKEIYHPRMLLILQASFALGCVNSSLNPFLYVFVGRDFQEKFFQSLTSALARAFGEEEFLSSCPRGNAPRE
# Test: qHTS for Agonists of Human Resolvin D1 Receptor DRV1; note: 0% is about no effect
# Settings: CHO-K1 GPR32 beta-arrestin PathHunter luminescence, 90 min; at 76.9 µM; stronger effect = higher value; zero percent set by DMSO-only wells
# Summary of the method: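 Agonism was scored as beta-arrestin recruitment to ProLink-fused GPR32 in stably transfected CHO-K1 cells, giving a chemiluminescent beta-Gal signal; compounds were incubated 90 min at 37 °C.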
row,Structure (SMILES),activation
1,Cc1ccccc1C(=O)N1CC(=O)Nc2ccc(Cl)cc2C1c1ccccc1 (stereo not drawn),inactive: -21.1%
2,O=C(CCSCc1cccc(Cl)c1)N1CCN(c2ccc(Cl)cc2)CC1,inactive: -29.1%
3,C#CCn1c(=NC(=O)c2ccc3c(c2)OCCO3)sc2cc(OC)c(OC)cc21,inactive: -0.731%
4,COc1ccc(CCNC(=O)CCCCn2c(=O)c3ccccc3n(CC(=O)Nc3c(C)cccc3C)c2=O)cc1OC,inactive: -3.58%
5,O=C(c1cccc(Cl)c1)N1c2nc(-c3ccco3)nn2C2(CCCCC2)[C@@H]2CCCC[C@@H]21,inactive: -7.5%
6,CCOc1ccc(NS(=O)(=O)c2ccc(C(=O)N(C)C)s2)cc1,inactive: 5.24%
7,Cc1nn(-c2ccc(N3CCCCC3)nn2)c(C)c1CCC(=O)Nc1ccc(F)cc1F,inactive: 2.47%
8,COc1ccc(S(=O)(=O)N2CCC(C(=O)Nc3ccccc3)CC2)cc1OC,inactive: 16.4%
9,CCOC(=O)c1c(C)[nH]c(C)c1S(=O)(=O)NCC(=O)Nc1cccc(C#N)c1,inactive: 7.67%
10,COc1cc(OC)cc(N2C(=O)N(Cc3ccc(C(C)(C)C)cc3)c3ccccc3S2(=O)=O)c1,inactive: -1.28%
11,COc1cccc(NC(=O)CC(=O)Nc2ccc3nc4n(c(=O)c3c2)CCCCC4)c1,inactive: -10.5%
12,Cc1nc2ccc(S(=O)(=O)CCC(=O)Nc3ccc(Cl)cc3)cc2s1,inactive: 3.87%
13,COC(=O)c1scc(-c2ccc(C)cc2)c1S(=O)(=O)N1CCN(c2ccccc2)CC1,inactive: -9.76%
14,COc1ccc(OC)c(NC(=O)CN2C(=O)CC(C)Sc3ccccc32)c1 (stereo not drawn),inactive: 22%
15,O=C(CCOc1ccccc1)N(Cc1cccnc1)c1nc2ccc(Cl)cc2s1,inactive: -4.33%
16,CCOc1ccc(NC(=O)CSc2oc(-c3ccc(F)cc3)nc2S(=O)(=O)c2ccc(C)cc2)cc1,inactive: -4.78%
17,O=C(Nc1ccc(Br)cc1F)c1cc(S(=O)(=O)NC2CCCCC2)ccc1F,inactive: -3.53%
18,Cc1nc2nc(NC(=O)c3ccc(C(C)(C)C)cc3)[nH]n2c(=O)c1Cc1ccccc1,inactive: 9.36%
19,Cc1ccc(CN(Cc2ccco2)C(=O)c2oc3cc(Br)ccc3c2C)cc1,inactive: -21.4%
20,Clc1ccccc1-c1nnc(COc2ccccc2)o1,inactive: 46.4%
21,Cc1ccc(-n2c(=O)c3c4c(sc3n(Cc3cc(=O)n5ccccc5n3)c2=O)CCC4)cc1C,inactive: -5.43%

row,Structure (SMILES),activation
1,COc1ccc(CNC(=O)Cn2ccc3cc(S(=O)(=O)N4CCCCC4)ccc32)cc1OC,inactive: 1.55%
2,C/C=C(/C(=C/C)c1ccc(OC(C)=O)cc1)c1ccc(OC(C)=O)cc1,inactive: 42.4%
3,COc1cc(CN2CCN(S(=O)(=O)c3ccc(NC(C)=O)cc3)CC2)cc(OC)c1OC,inactive: -2.66%
4,CCOC(=O)c1cc(C)n(CC2CCC(C(=O)Nc3ccccc3OC)CC2)c1C (stereo not drawn),inactive: 1.39%
5,CCc1ccc(N(CC)C(=O)Cn2nc(Cc3cccnc3)c3ccccc3c2=O)cc1,inactive: -40%
6,CCn1cc(C(=O)NCCc2ccc(OC)c(OC)c2)c(=O)c2cc(S(=O)(=O)N3CCCCCC3)ccc21,inactive: 2.59%
7,CCOC(=O)c1sc2ccccc2c1S(=O)(=O)Nc1ccc(C(C)=O)cc1,inactive: 22.1%
8,Cc1cccc(Cn2c(=O)n(Cc3ccccc3)c(=O)c3c2c2cc(C)ccc2n3C)c1,inactive: -1.59%
9,CC(=O)c1ccc(NS(=O)(=O)c2c(C)nc3scc(C)n3c2=O)cc1,inactive: 15.2%
10,Cc1ccc2oc(-c3ccc(C)c(NC(=O)C(C)(C)Oc4ccc(Cl)cc4)c3)nc2c1,inactive: -2.35%
11,COc1ccc(Cl)cc1NC(=O)N(C)CCc1c(C)nn(C)c1C,inactive: 16.2%
12,COc1ccccc1NC(=O)c1oc2ccccc2c1NC(=O)COc1cccc(C)c1,inactive: -4.62%
13,O=C(OCc1ccccc1)c1ccc(O)cc1,active: 68.1%
14,CCc1ccc(NC(=O)Cn2c(=O)n(CCC(C)C)c(=O)c3cccnc32)cc1,inactive: 24.5%
15,COc1ccc(-c2cc(C(F)(F)F)n3nc(-c4ccccc4)cc3n2)cc1OC,inactive: 32%
16,COc1ccccc1NC(=O)c1c(NCc2ccc(C)o2)sc2c1CCCCC2,inactive: -18.6%
17,CCOC(=O)N1CCc2c(sc3c2C(=O)NC(c2cc(OC)c(OC)c(OC)c2)N3)C1 (stereo not drawn),inactive: -8.65%
18,CCOC(=O)c1cc(S(=O)(=O)Nc2cc(F)ccc2C)[nH]n1,inactive: -3.57%
19,CCCc1nn2c(=O)cc(COC(=O)c3ccccc3NC(=O)COc3ccccc3)nc2s1,inactive: -2.81%
20,CCc1ccccc1NS(=O)(=O)c1ccc2c(c1)CC(=O)N2,inactive: -0.165%
21,CC(C)(C)C(=O)OCOC(=O)[C@@H]1N2C(=O)[C@@H](NC(=O)[C@H](N)c3ccccc3)[C@H]2SC1(C)C,inactive: 20.9%

row,Structure (SMILES),activation
1,CC(=O)Nc1nonc1-c1nnc(SCc2ccccc2F)n1C,inactive: 0.905%
2,CC(=O)c1ccc(N2CCN(c3ncnc4c3c(-c3ccccc3)cn4-c3ccc(Cl)cc3)CC2)cc1,inactive: -25.9%
3,Cc1ccc(/C=C/c2onc(C)c2S(=O)(=O)N2CCC(C(=O)Nc3ccccc3C(F)(F)F)CC2)cc1,inactive: -29.3%
4,CCCCSc1nnc2n(-c3ccc(OC)cc3)c(=O)c3c4c(sc3n12)COC(C(C)C)C4 (stereo not drawn),inactive: -6.27%
5,CC(=O)c1ccc(NC(=O)c2cc(C)nc3c2c(C)nn3-c2ccc(C)cc2)cc1,inactive: -6.27%
6,Cc1cccc2c1N(Cc1ccccc1OCCC(C)C)C(=O)C2=O,inactive: -44.6%
7,COc1ccc2c(c1)c(=O)c(S(=O)(=O)c1ccccc1)cn2CC(=O)Nc1ccc(C)c(Cl)c1,inactive: -5.29%
8,COc1ccc(-n2c(=O)c3c(c4cc(OC)ccc4n3C)n(Cc3cccc(C)c3)c2=O)cc1,inactive: -0.201%
9,CCOC(=O)c1c(C)[nH]c(C)c1S(=O)(=O)N1CCCC(C(=O)NCc2ccc(N(C)C)cc2)C1 (stereo not drawn),inactive: -24.9%
10,CC(C)CC(=O)Nc1nnc(S(=O)(=O)N(C)Cc2ccc(Cl)cc2)s1,inactive: -11.2%
11,COc1ccc(-n2cc(C(=O)NCCc3cc(OC)ccc3OC)c3ccccc3c2=O)cc1,inactive: -17.1%
12,CCC(C(=O)Nc1cccc(-c2nc3cccnc3s2)c1C)c1ccccc1 (stereo not drawn),inactive: -25.9%
13,CNC(=O)CSc1cn(CC(=O)N2CCCCCC2)c2ccccc12,inactive: -11%
14,CC1=C(C(=O)Nc2ccc(C)cc2C)C(c2cccs2)n2nc(SCc3cccc(C)c3)nc2N1 (stereo not drawn),inactive: 4.04%
15,CCOC(=O)CSc1nc2c(sc3ccccc32)c(=O)n1CCO,inactive: -12%
16,COc1ccc(OCC(O)Cn2c(NCCO)nc3c2c(=O)n(C)c(=O)n3C)cc1 (stereo not drawn),inactive: -9.3%
17,Cc1nn(CC(=O)N2CCN(c3ccc(Cl)cc3)CC2)c(=O)c2cccn12,inactive: -10.4%
18,CCN(CC)CCCNc1ncnc2c1cnn2-c1ccc(C)c(C)c1,inactive: 19.1%
19,Cc1csc2nc(COc3cccc(NC(=O)c4ccccc4F)c3)cc(=O)n12,inactive: 6.69%
20,Cc1ccc(-n2c(=O)c3c(c4cc(C)ccc4n3C)n(CC(=O)N3CCCC3)c2=O)cc1,inactive: -10.6%
21,O=C(CSC1=Nc2ccccc2N=C(c2ccc(F)cc2)C1)Nc1ccccc1,inactive: -15.4%

row,Structure (SMILES),activation
1,CCOc1ccc(NC(=O)c2c(NC(=O)Cc3ccccc3)sc3c2CCCCC3)cc1,inactive: -12.7%
2,Cc1cc(C)c(NC(=O)C2CCN(c3nn4c(=O)cc(C)nc4s3)CC2)c(C)c1,inactive: 4.49%
3,COc1ccc(NCc2cccn2-c2nnc(N3CCCCC3)s2)cc1OC,active: 83.8%
4,Cc1ccc2nc(COc3ccccc3NC(=O)c3ccc(F)cc3)cc(=O)n2c1,inactive: 3.38%
5,Cc1cc(C)cc(NC(=O)Cn2cc(C(=O)C3CCCCC3)c3ccccc32)c1,inactive: 9.71%
6,O=C(CSc1nc2c([nH]c3ccccc32)c(=O)n1-c1ccc(Cl)cc1)c1ccccc1,inactive: 8.73%
7,Cc1ccc2c(=O)cc(C(=O)Nc3ccc(S(=O)(=O)Nc4ncccn4)cc3)oc2c1C,active: 66.6%
8,Cc1ccc(NC(=O)CSc2cn(CC(=O)N3CCCC3)c3ccccc23)cc1Cl,inactive: 6.34%
9,CCOc1ccc(NS(=O)(=O)c2ccc3c(c2)CCCN3C(=O)C2CCC2)cc1,inactive: -28.8%
10,COc1ccccc1CNC(=O)c1cn(C)c2ccc(S(=O)(=O)N(C)C3CCCCC3)cc2c1=O,inactive: -18.5%
11,CC(Cc1ccccc1)(NC(=O)CN)c1ccccc1 (stereo not drawn),inactive: -96.2%
12,Cc1ccc(NC(=O)Cn2c(=O)nc(-c3ccccc3)c3ccccc32)cc1F,inactive: 0.613%
13,COc1ccc(CCNc2ncnc3c2cnn3-c2cc(Cl)ccc2C)cc1,inactive: 47.5%
14,COc1ccc(Cn2c(SCC(=O)N(C)Cc3ccccc3)nc3ccccc32)cc1,inactive: -49%
15,CC(C)(C)C1CCc2oc3ccc(NS(=O)(=O)c4ccc(C(=O)O)cc4)cc3c2C1 (stereo not drawn),inactive: 47.2%
16,CC1CCN(S(=O)(=O)c2ccc3c(ccc(=O)n3CC(=O)Nc3cccc(F)c3)c2)CC1,inactive: -17.5%
17,Cc1cccc(-c2noc(-c3ccc(N4CCOCC4)c([N+](=O)[O-])c3)n2)c1,inactive: 24.2%
18,O=C(Nc1cnc(N2CCN(c3ccccc3)CC2)c(C(=O)O)c1)c1cccs1,inactive: -5.46%
19,CN1CCc2c(sc3c2C(=O)NC(c2ccc(C(C)(C)C)cc2)N3)C1 (stereo not drawn),inactive: -7.01%
20,CC1CCCCN1C(=O)c1cc(-c2ccc(Br)cc2)on1 (stereo not drawn),inactive: -12.5%
